In the supplement of paper PMC8728848:
This is one part of the list.

Key:
Test in all cases: glycan array binding signal (z-score within array); higher = stronger binding
Settings in all cases: glycan notation: IUPAC condensed, linker removed
GalNAc(b1-4)GlcNAc6S = biological target: GalNAc(b1-4)GlcNAc6S
Procedure, shortened: (§1)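 The binding signal is a Z-score computed within each array and averaged over linkers. Arrays of the same protein sequence at different concentrations or buffers were also averaged together. Data originate from 3228 arrays in the Consortium for Functional Glycomics database, kept only where the protein sequence was available.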

GalNAc(b1-6)GalNAc = biological target: GalNAc(b1-6)GalNAc
Procedure, shortened: as §1

GalNAc3S(b1-4)GlcNAc = biological target: GalNAc3S(b1-4)GlcNAc
Procedure, shortened: as §1

GalNAc3S(b1-4)GlcNAc3S = biological target: GalNAc3S(b1-4)GlcNAc3S
Procedure, shortened: as §1

[1] = biological target: GalNAc3S(b1-4)[Fuc(a1-3)]GlcNAc
Procedure, shortened: as §1

GalNAc4S6S(b1-4)GlcNAc = biological target: GalNAc4S6S(b1-4)GlcNAc
Procedure, shortened: as §1

GalNAc6S(b1-4)GlcNAc = biological target: GalNAc6S(b1-4)GlcNAc
Procedure, shortened: as §1

Glc(a1-4)Glc = biological target: Glc(a1-4)Glc
Procedure, shortened: as §1

[2] = biological target: Glc(a1-4)Glc(a1-4)Glc(a1-4)Glc
Procedure, shortened: as §1

Glc(a1-6)Glc(a1-6)Glc = biological target: Glc(a1-6)Glc(a1-6)Glc
Procedure, shortened: as §1

[3] = biological target: Glc(a1-6)Glc(a1-6)Glc(a1-6)Glc
Procedure, shortened: as §1

Glc(b1-4)Glc = biological target: Glc(b1-4)Glc
Procedure, shortened: as §1

Glc(b1-6)Glc = biological target: Glc(b1-6)Glc
Procedure, shortened: as §1

GlcA(b1-3)Gal = biological target: GlcA(b1-3)Gal
Procedure, shortened: as §1

GlcA(b1-3)GlcNAc = biological target: GlcA(b1-3)GlcNAc
Procedure, shortened: as §1

GlcA(b1-6)Gal = biological target: GlcA(b1-6)Gal
Procedure, shortened: as §1

[4] = biological target: GlcA3S(b1-3)Gal(b1-4)GlcNAc(b1-2)Man
Procedure, shortened: as §1

[5] = biological target: GlcA3S(b1-3)Gal(b1-4)GlcNAc(b1-3)Gal(b1-4)Glc
Procedure, shortened: as §1

[6] = biological target: GlcNAc(a1-3)Gal(b1-4)GlcNAc
Procedure, shortened: as §1

[7] = biological target: GlcNAc(a1-4)Gal(b1-3)GlcNAc
Procedure, shortened: as §1

[8] = biological target: GlcNAc(a1-4)Gal(b1-4)GalNAc
Procedure, shortened: as §1

[9] = biological target: GlcNAc(a1-4)Gal(b1-4)GlcNAc
Procedure, shortened: as §1

[10] = biological target: GlcNAc(a1-4)Gal(b1-4)GlcNAc(b1-3)Gal(b1-4)Glc
Procedure, shortened: as §1

[11] = biological target: GlcNAc(a1-4)Gal(b1-4)GlcNAc(b1-3)Gal(b1-4)GlcNAc
Procedure, shortened: as §1

[12] = biological target: GlcNAc(a1-4)Gal(b1-4)GlcNAc(b1-3)Gal(b1-4)GlcNAc(b1-3)Gal(b1-4)GlcNAc
Procedure, shortened: as §1

[13] = biological target: GlcNAc(a1-4)Gal(b1-4)GlcNAc(b1-3)Gal(b1-4)[Fuc(a1-3)]GlcNAc(b1-3)Gal(b1-4)[Fuc(a1-3)]GlcNAc
Procedure, shortened: as §1

[14] = biological target: GlcNAc(a1-6)Gal(b1-4)GlcNAc
Procedure, shortened: as §1

[15] = biological target: GlcNAc(b1-2)Gal(b1-3)GalNAc
Procedure, shortened: as §1

[16] = biological target: GlcNAc(b1-2)Man(a1-3)[GlcNAc(b1-2)Man(a1-6)]Man(b1-4)GlcNAc(b1-4)GlcNAc
Procedure, shortened: as §1

[17] = biological target: GlcNAc(b1-2)Man(a1-3)[GlcNAc(b1-2)Man(a1-6)]Man(b1-4)GlcNAc(b1-4)[Fuc(a1-6)]GlcNAc
Procedure, shortened: as §1

[18] = biological target: GlcNAc(b1-2)Man(a1-3)[GlcNAc(b1-4)][GlcNAc(b1-2)Man(a1-6)]Man(b1-4)GlcNAc(b1-4)GlcNAc
Procedure, shortened: as §1

[19] = biological target: GlcNAc(b1-2)Man(a1-3)[GlcNAc(b1-4)][GlcNAc(b1-2)Man(a1-6)]Man(b1-4)GlcNAc(b1-4)[Fuc(a1-6)]GlcNAc
Procedure, shortened: as §1

[20] = biological target: GlcNAc(b1-2)[GlcNAc(b1-4)]Man(a1-3)[GlcNAc(b1-2)Man(a1-6)]Man(b1-4)GlcNAc(b1-4)GlcNAc
Procedure, shortened: as §1

[21] = biological target: GlcNAc(b1-2)[GlcNAc(b1-4)]Man(a1-3)[GlcNAc(b1-4)][GlcNAc(b1-2)Man(a1-6)]Man(b1-4)GlcNAc(b1-4)GlcNAc
Procedure, shortened: as §1

[22] = biological target: GlcNAc(b1-2)[GlcNAc(b1-4)]Man(a1-3)[GlcNAc(b1-4)][GlcNAc(b1-2)[GlcNAc(b1-6)]Man(a1-6)]Man(b1-4)GlcNAc(b1-4)GlcNAc
Procedure, shortened: as §1

[23] = biological target: GlcNAc(b1-2)[GlcNAc(b1-4)]Man(a1-3)[GlcNAc(b1-4)][GlcNAc(b1-2)[GlcNAc(b1-6)]Man(a1-6)]Man(b1-4)GlcNAc(b1-4)[Fuc(a1-6)]GlcNAc
Procedure, shortened: as §1

[24] = biological target: GlcNAc(b1-2)[GlcNAc(b1-6)]Man(a1-6)[GlcNAc(b1-2)Man(a1-3)]Man(b1-4)GlcNAc(b1-4)GlcNAc
Procedure, shortened: as §1

B1: Gal 4 (Mus musculus), P56470 (protein)
chain: MAYVPAPGYQPTYNPTLPYYQPIPGGLNVGMSVYIQGVASEHMKRFFVNFVVGQDPGSDVAFHFNPRFDGWDKVVFNTLQGGKWGSEERKRSMPFKKGAAFELVFIVLAEHYKVVVNGNPFYEYGHRLPLQMVTHLQVDGDLQLQSINFIGGQPLRPQGPPMMPPYPGPGHCHQQLNSLPTMEGPPTFNPPVPYFGRLQGGLTARRTIIIKGYVPPTGKSFAINFKVGSSGDIALHINPRMGNGTVVRNSLLNGSWGSEEKKITHNPFGPGQFFDLSIRCGLDRFKVYANGQHLFDFAHRLSAFQRVDTLEIQGDVTLSYVQI
GalNAc(b1-4)GlcNAc6S
  glycan array binding signal (z-score): 0.496
GalNAc(b1-6)GalNAc
  glycan array binding signal (z-score): -0.226
GalNAc3S(b1-4)GlcNAc
  glycan array binding signal (z-score): 0.169
GalNAc3S(b1-4)GlcNAc3S
  glycan array binding signal (z-score): -0.325
[1]
  glycan array binding signal (z-score): -0.304
GalNAc4S6S(b1-4)GlcNAc
  glycan array binding signal (z-score): -0.265
GalNAc6S(b1-4)GlcNAc
  glycan array binding signal (z-score): -0.326
Glc(a1-4)Glc
  glycan array binding signal (z-score): -0.244
[2]
  glycan array binding signal (z-score): -0.317
Glc(a1-6)Glc(a1-6)Glc
  glycan array binding signal (z-score): -0.251
[3]
  glycan array binding signal (z-score): -0.275
Glc(b1-4)Glc
  glycan array binding signal (z-score): -0.232
Glc(b1-6)Glc
  glycan array binding signal (z-score): -0.23
GlcA(b1-3)Gal
  glycan array binding signal (z-score): -0.24
GlcA(b1-3)GlcNAc
  glycan array binding signal (z-score): -0.039
GlcA(b1-6)Gal
  glycan array binding signal (z-score): -0.236
[4]
  glycan array binding signal (z-score): -0.336
[5]
  glycan array binding signal (z-score): -0.228
[6]
  glycan array binding signal (z-score): -0.2
[7]
  glycan array binding signal (z-score): -0.237
[8]
  glycan array binding signal (z-score): -0.219
[9]
  glycan array binding signal (z-score): -0.233
[10]
  glycan array binding signal (z-score): 0.38
[11]
  glycan array binding signal (z-score): -0.209
[12]
  glycan array binding signal (z-score): -0.114
[13]
  glycan array binding signal (z-score): -0.176
[14]
  glycan array binding signal (z-score): -0.239
[15]
  glycan array binding signal (z-score): -0.226
[16]
  glycan array binding signal (z-score): -0.24
[17]
  glycan array binding signal (z-score): -0.19
[18]
  glycan array binding signal (z-score): -0.225
[19]
  glycan array binding signal (z-score): -0.278
[20]
  glycan array binding signal (z-score): -0.244
[21]
  glycan array binding signal (z-score): -0.234
[22]
  glycan array binding signal (z-score): -0.23
[23]
  glycan array binding signal (z-score): -0.264
[24]
  glycan array binding signal (z-score): -0.221
